# Reference: the supplement of paper PMC2702839
# Where a name gives a salt, the structure may show the parent alone. Some of the results follow.
# System: Schistosoma mansoni schistosomula
# Experiment: phenotypic hit in primary schistosomula screen (any phenotype vs DMSO control) (binary (1 = hit, 0 = no phenotype)); higher = active (phenotype induced)
# Conditions: 1 µM; time (d): 7
row,Structure (SMILES),phenotypic hit
1,O=C(O)c1cccnc1 [niacin],inactive: 0
2,Cc1cccc(N(C)C(=S)Oc2ccc3ccccc3c2)c1 [tolnaftate],inactive: 0
3,O=c1cccc2ccc(O)c(O)c2c1O [pyrogallin],inactive: 0
4,CCN1CCCC1CNC(=O)c1cc(S(N)(=O)=O)ccc1OC (centres undefined) [sulpiride],inactive: 0
5,O=C(O)c1cc2cc(F)ccc2[nH]1 [5-Fluoroindole-2-carboxylic acid],inactive: 0
6,O=C(O)CCC(=O)c1ccc(-c2ccccc2)cc1 [fenbufen],inactive: 0
7,COc1ccc(-c2coc3cc(O)ccc3c2=O)c(OC)c1 [2'-methoxyformonetin],inactive: 0
8,CCC(C)C(NC)C(=O)O (centres undefined) [n-methylisoleucine],inactive: 0
9,N[C@@H](Cc1ccc(O)c(O)c1)C(=O)O [levodopa],inactive: 0
10,COc1cc(/C=C/CO)ccc1O [coniferyl alcohol],inactive: 0
11,CN(C)CCc1c[nH]c2ccc(CS(=O)(=O)N3CCCC3)cc12 [almotriptan],inactive: 0
12,COc1cc(O)cc(OC)c1OC [antiarol],inactive: 0
13,COC(=O)CC1C2(C)CC34OC5(C)OC6(C7/C(=C(/O)C(C)C)C(=O)OC(c8ccoc8)C7(C)C(OC(=O)C(C)C)C(OC)C6(O5)C13C)C(OC)C4(OC)C2OC(C)=O (centres undefined) [chukrasin],inactive: 0
14,COC(=O)[C@H]1[C@H]2C[C@H]3c4[nH]c5cc(OC)ccc5c4CCN3C[C@H]2C[C@@H](OC(=O)c2cc(OC)c(OC)c(OC)c2)[C@@H]1OC [isoreserpine],inactive: 0
15,C[N+](C)(C)CCOC(N)=O [Carbachol],inactive: 0
16,COC(=O)C[C@H]1C2(C)CC34OC5(C)O[C@@]6([C@H](OC)C(OC(=O)C(C)C)[C@]7(C)C(/C(=C(/OC)C(C)C)C(=O)O[C@H]7c7ccoc7)[C@@]6(O5)[C@H](OC)[C@@]3(OC)C2OC(C)=O)[C@]14C (some centres undefined) [chukrasin methyl ether],inactive: 0
17,Cc1nc2sccn2c(=O)c1CCN1CCC(=C(c2ccc(F)cc2)c2ccc(F)cc2)CC1 [Ritanserin],inactive: 0
18,CO[C@H]1C[C@H](O[C@@H]2/C(C)=C/C[C@@H]3C[C@@H](C[C@]4(CC[C@H](C)[C@@H](C5CCCCC5)O4)O3)OC(=O)[C@@H]3C=C(C)/C(=N/O)[C@H]4OC/C(=C\C=C\[C@@H]2C)[C@]43O)O[C@@H](C)[C@@H]1O [selamectin],inactive: 0
19,C[C@H](CCC(=O)O)[C@H]1CC[C@H]2[C@@H]3C(=O)C[C@@H]4CC(=O)CC[C@]4(C)[C@H]3CC(=O)[C@]12C [dehydrocholic acid],inactive: 0
20,C[C@H](CCC(=O)O)[C@H]1CC[C@H]2[C@@H]3C(=O)C[C@@H]4CC(=O)CC[C@]4(C)[C@H]3CC(=O)[C@]12C [sodium dehydrocholate],inactive: 0
21,C[C@@H]1O[C@@H](O[C@H]2[C@H](O[C@H]3CC[C@@]4(C)[C@@H](CC[C@]5(C)[C@@H]4CC=C4[C@@H]6CC(C)(C)CC[C@]6(C(=O)O)CC[C@]45C)[C@]3(C)CO)OC[C@H](O)[C@@H]2O)[C@H](O)[C@H](O)[C@H]1O [sapindoside a],inactive: 0
22,O=C1c2c(O)ccc(O)c2C(=O)c2c(NCCNCCO)ccc(NCCNCCO)c21 [mitoxanthrone hydrochloride],inactive: 0

row,Structure (SMILES),phenotypic hit
1,CCN(CC)CCNC(=O)c1cc(Br)c(N)cc1OC [bromopride],inactive: 0
2,C[C@H]1C(=O)CC[C@@H]2[C@]1(C)CC[C@H]1[C@@]2(C)CC[C@@]2(C)[C@@H]3CC(C)(C)CC[C@]3(C)CC[C@]12C [friedelin],inactive: 0
3,OC(CCN1CCCCC1)(c1ccccc1)c1ccccc1 [pridinol methanesulfonate],inactive: 0
4,CCCCC(=O)N(Cc1ccc(-c2ccccc2-c2nnn[nH]2)cc1)[C@H](C(=O)O)C(C)C [valsartan],inactive: 0
5,O=C(O)c1cc(=O)c2ccccc2[nH]1 [Kynurenic acid],inactive: 0
6,CC(C)NNC(=O)c1ccncc1 [Iproniazid phosphate],inactive: 0
7,O=C1c2cccc(O)c2C(=O)c2c(O)cccc21 [dantron],inactive: 0
8,COc1ccc(-c2cc(=O)c3c(O)cc(O[C@H]4O[C@H](CO[C@@H]5O[C@@H](C)[C@H](O)[C@@H](O)[C@H]5O)[C@@H](O)[C@H](O)[C@H]4O)cc3o2)cc1 [buddleoflavonoloside],inactive: 0
9,COc1cc(C(=O)O)c(O)c2c1OCO2 [2-demethylapiolic acid],inactive: 0
10,CCOC(N)=O [urethane],inactive: 0
11,O=c1c(O)cccc2c([C@H]3Oc4cc(O)cc(O)c4C[C@H]3O)cc(O)c(O)c12 [theaflavanin],active: 1
12,C[C@@H]1CC[C@@]2(OC1)O[C@H]1C[C@H]3[C@@H]4CC=C5C[C@@H](O)CC[C@]5(C)[C@H]4CC[C@]3(C)[C@H]1[C@@H]2C [diosgenin],inactive: 0
13,Nc1ccc(C(=O)O)c(O)c1 [sodium p-aminosalicylate],inactive: 0
14,Cc1cc(=O)c2c(O)cc(O)c(C)c2o1 [isoeugenitol],inactive: 0
15,O=C(O)c1ccccc1Nc1cccc(C(F)(F)F)c1 [flufenamic acid],inactive: 0
16,CSCCC(NC=O)C(=O)NC(C)C(=O)O (centres undefined) [n-formylmethionylalanine],inactive: 0
17,Clc1ccc(C(c2ccccc2Cl)C(Cl)Cl)cc1 (centres undefined) [mitotane],inactive: 0
18,O=C1O[C@H]([C@@H](O)CO)C(O)=C1O [ascorbic acid],inactive: 0
19,Nc1ccc(/N=N/c2ccccc2)c(N)n1 [phenazopyridine hydrochloride],inactive: 0
20,CN(C)CCOC(=O)C(c1ccccc1)C1(O)CCCC1 (centres undefined) [cyclopentolate hydrochloride],inactive: 0
21,CC1=CC(=O)C2=C(C)CC[C@@H]3[C@H](OC(=O)[C@H]3C)[C@@H]12 [leucodin],inactive: 0
22,O=C(/C=C/c1ccccc1)c1ccc(O)cc1 [4'-hydroxychalcone],inactive: 0
